± gives the standard deviation of the averaged measurements. Whole data set: some 33,000 sequences, median “E-score (dimensionless, -0.5 to 0.5)” near -0.046, cut for the highest 2% near 0.36. This is one part of the list.
Test system: T1, SpTbr T-box DNA-binding domain (GST fusion)
T1 sequence: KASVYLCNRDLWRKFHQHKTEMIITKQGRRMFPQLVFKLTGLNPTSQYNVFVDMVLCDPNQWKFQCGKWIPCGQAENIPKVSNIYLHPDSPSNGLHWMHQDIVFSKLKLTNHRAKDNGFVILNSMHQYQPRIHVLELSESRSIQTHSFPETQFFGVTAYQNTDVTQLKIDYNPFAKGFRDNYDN
Experiment: PBM E-score of 8-mer (E-score (dimensionless, -0.5 to 0.5)); Tbr is Tbrain of the sea star Patiria miniata (Pm) or the sea urchin Strongylocentrotus purpuratus (Sp); higher = stronger binding preference; most listed sequences are background and not binding sites
Conditions: the construct has about 5 more residues each side
In short: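 GST-fused Tbr T-box DNA-binding domains (the whole T-box plus about five flanking residues) were expressed in BL21 E. coli at 20 °C and purified by glutathione affinity chromatography. Universal Agilent oligonucleotide arrays were made double-stranded by primer extension, incubated with 200 nM protein in PBS (pH 7.5), then scanned and quantified. Every ungapped 8-mer was scored from probe intensities. The Universal PBM Analysis Suite gave each word an enrichment E-score, averaged over duplicate arrays.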

Row | Sequence | PBM E-score of 8-mer
1 | CGATTCAC | 0.262 ± 0.0081
2 | AGGACACG | 0.0227 ± 0.067
3 | AATTATCA | 0.0178 ± 0.079
4 | GAACGAGC | -0.187 ± 0.063
5 | AGGGTCGC | 0.165 ± 0.069
6 | AATAAGCA | -0.132 ± 0.012
7 | CCGGGCTC | -0.245 ± 0.051
8 | ACGCCAAG | 0.152 ± 0.016
9 | GCGGGAAC | 0.154 ± 0.044
10 | GATGGTGA | 0.166 ± 0.016
11 | CCCACCAC | -0.00552 ± 0.018
12 | AACCTCCA | -0.135 ± 0.018
13 | GACTGCGA | 0.233 ± 0.014
14 | CTAACGTC | -0.167 ± 0.075
15 | CGCTGGAG | -0.131 ± 0.076
16 | CACGAACG | 0.209 ± 0.0028
17 | ACCGCCTG | 0.0532 ± 0.17
18 | ATCTACCA | -0.109 ± 0.05
19 | GAGTGACA | 0.343 ± 0.033
20 | GAGGACTA | -0.245 ± 0.032
21 | ATGCCTAA | 0.0456 ± 0.0037
22 | GCTGCTGA | -0.0776 ± 0.019

Row | Sequence | PBM E-score of 8-mer
23 | AGAAAGAA | -0.3 ± 0.047
24 | AACCCCAG | -0.409 ± 0.028
25 | AACTGCGA | 0.3505 ± 0.00075
26 | ATTTTTCC | -0.0034 ± 0.048
27 | CTGGAAGA | -0.226 ± 0.031
28 | AACCCCCG | 0.0678 ± 0.0062
29 | TAGATAGA | -0.172 ± 0.026
30 | TCATTCGA | -0.131 ± 0.047
31 | CCAACGCC | 0.209 ± 0.035
32 | ATTGCAAC | -0.00473 ± 0.1
33 | AAACCGGG | -0.0969 ± 0.033
34 | CAAGCTGG | 0.165 ± 0.064
35 | CTAGTTCA | 0.0716 ± 0.0071
36 | AGGGATAG | -0.249 ± 0.047
37 | AGATCGGC | -0.216 ± 0.086
38 | TACTGATA | -0.132 ± 0.053
39 | AGTCACAC | 0.457 ± 0.0049
40 | CTTTTTGC | -0.00587 ± 0.064
41 | AGATGTAG | -0.216 ± 0.055
42 | ATTTAGAC | -0.135 ± 0.03
43 | GCGCGTAA | 0.229 ± 0.035
44 | AAAGAACC | -0.141 ± 0.034

Row | Sequence | PBM E-score of 8-mer
45 | GCAGCGTA | -0.0308 ± 0.041
46 | AAAGGCCT | -0.199 ± 0.026
47 | AACTTTCA | -0.00941 ± 0.039
48 | GCTCTCCA | -0.0369 ± 0.0074
49 | CTGACCGA | -0.122 ± 0.11
50 | ACGGAGAC | -0.153 ± 0.02
51 | GCTAGCGA | 0.156 ± 0.022
52 | ACAAAGCG | 0.116 ± 0.0068
53 | GATTAACA | 0.295 ± 0.037
54 | ACCGAACC | -0.0373 ± 0.023
55 | ATGCTAGA | -0.161 ± 0.01
56 | GGCGTATA | 0.0846 ± 0.081
57 | AAGTTATA | 0.131 ± 0.023
58 | ACAGCCGT | 0.101 ± 0.05
59 | CGTAGGAA | -0.00351 ± 0.079
60 | ATTAGCAG | 0.0716 ± 0.046
61 | AGTTTCGA | -0.271 ± 0.053
62 | CCATTGGC | -0.0911 ± 0.064
63 | TCATTAGA | -0.165 ± 0.049
64 | AGACCTGG | -0.344 ± 0.024
65 | ATTACTAC | -0.128 ± 0.0091
66 | TCGCGCCA | 0.384 ± 0.009

Row | Sequence | PBM E-score of 8-mer
67 | ATGGATGG | -0.312 ± 0.036
68 | CGGCTCGA | 0.0256 ± 0.046
69 | ATTACCGG | -0.104 ± 0.0043
70 | TCTAGTAA | -0.189 ± 0.083
71 | CATCCTGG | -0.0597 ± 0.01
72 | ACTCGGGC | -0.179 ± 0.093
73 | ATTTCCCC | -0.118 ± 0.0099
74 | GATGCACA | 0.077 ± 0.0073
75 | GTTGTCGA | 0.271 ± 0.0066
76 | ATGATGTA | -0.12 ± 0.017
77 | AGCACATA | 0.194 ± 0.013
78 | ATGCTTTC | 0.064 ± 0.026
79 | GGTATTTA | -0.262 ± 0.0094
80 | AAAAGAAG | -0.153 ± 0.061
81 | ACGGACCG | -0.0131 ± 0.013
82 | GAACTTGA | -0.0691 ± 0.0032
83 | AGGTGGTG | 0.34049 ± 0.00016
84 | CTATAGAA | -0.173 ± 0.0088
85 | GATGATCC | -0.0774 ± 0.0012
86 | CTAACCGC | 0.0415 ± 0.056
